From PMC10668032
Some of the results follow. At the low end of the ranking the order means little.

Molecular target: SIX1-Q177R homeodomain (UniProt Q15475)
Assay: universal protein binding microarray
Conditions: Universal all-10-mer PBM (8x60K, AMADID 030236), 300 nM GST-tagged protein, Alexa Fluor 488 anti-GST; buffer, salt, pH and temperature not stated; high values mean tight binding; most listed sequences are background and not binding sites; double strand, one strand shown

Sequence	binding signal [E-score]
AGACCCCC	0.214
AGCAAAGC	-0.253
AAAAGTCA	-0.156
CTTGCCAC	-0.0915
ACCCGTGG	0.118
CGGCATAA	-0.0281
AGCAGACC	-0.281
CAACGATC	-0.12
CATGGGCG	-0.0212
ACATCCGC	0.0624
GGCACGAC	-0.101
ACGTAACA	0.199
CCGGACGG	-0.102
AGGTAGGC	-0.081
CTATTTAA	-0.117
CATTTTTC	-0.128
CTGATGCA	-0.191
ACAAACCT	-0.0653
CTATAGTA	0.00653
AAGTGCCG	-0.246
GACTAAGA	-0.0724
AGGAAGTG	0.168
GCTGACAC	0.444
CGTATGTA	-0.0841
CTGGAGCC	-0.141

Sequence	binding signal [E-score]
ATCACACA	0.125
GATTAAAC	-0.0654
GATCCGCC	0.0707
CACTTTCC	0.0583
ACATCCCC	0.0676
CCAAGAAC	-0.0512
AAGGCTAA	-0.282
TTGGTAAA	-0.0218
ACCATGGA	-0.047
TAAACATA	-0.169
AGCCTCAA	-0.227
ACCTTCGT	-0.0665
AGTTCTAA	-0.1
CGTGATGC	-0.172
AAGCGTGA	0.0773
CACTAATC	0.172
GCAGTTAA	0.0691
AAGCACGA	0.0371
CCGAAGTA	0.113
CCCGTGGA	0.111
CTTGCACA	-0.0686
GGGAACCA	0.0536
AATTCTTC	-0.203
CTCGGCCA	-0.247
CCGACGCC	0.154

Sequence	binding signal [E-score]
TCGTTGCA	-0.0834
CGCGTGCC	0.0481
TGACGTAA	-0.088
ACTTTCAC	0.0611
GGTTGCAA	-0.061
GCGCAACA	0.109
ACACTAAC	0.356
CCAAAGTC	-0.134
CACGCTGC	0.293
AAGCTCAC	-0.109
CCACGTTA	-0.0871
GAGTCTAC	-0.124
GTGGGAGA	-0.0934
AATAGAGC	-0.107
ACGCGGTC	-0.068
AGAGATAC	0.0877
CTGTTTAA	-0.147
CACCCATA	0.301
CTGATTTC	-0.198
ACAGTGTC	0.387
AGACCCTC	0.0755
GGACTGAA	-0.0933
AGGACACT	0.38
ACCGTGGC	-0.0436
CAATGCTC	-0.133

Sequence	binding signal [E-score]
CGCACACA	0.16
TACTCTCA	0.00681
GTAACCCA	0.0242
GAATTACA	0.22
ATGGGATC	0.185
ATGCTCAC	-0.225
CTGATCTA	-0.13
CCAACCGC	0.0326
CGTAAGTA	-0.16
AATGCATT	-0.167
ATGGTCGC	-0.156
CGCAGTAA	-0.161
ACTTGCAC	0.175
CGTTAGCC	-0.112
CCCTTCAC	0.0641
GCCCTAAC	-0.185
ACTGCTCG	-0.0194
CGATGCTC	-0.213
CCACAGCA	0.0334
ATGGGAAT	0.0359
ATGTTATG	-0.152
AGTTGGAC	-0.173
AATCACGT	-0.171
CATCCCGC	-0.0678
GGTTGCCA	-0.169

Sequence	binding signal [E-score]
GCCGGGTA	0.197
CCAGTAAG	-0.218
GAGTCAAA	0.0432
CGGCAGCA	-0.174
CATTGCTC	-0.174
ATACGTCA	-0.164
CACGGCAG	0.0729
CCTAGTCG	-0.0884
ACGTCTTA	-0.259
GGAAATCA	-0.246
CACCTTTC	0.195
ACAGACAA	-0.109
ATTGGGAC	-0.101
ATATCCCC	0.197
GGTAGCTA	-0.0627
AGCTGTGG	0.132
CGACAAAC	-0.0296
TCAGATAA	-0.144
GCACGTCA	-0.135
CATGATTA	-0.262
CTTCTTAC	0.0698
AACACGTC	0.309
CCCCAGGG	0.137
AGTGGGAA	-0.162
TGGGACAA	-0.177

Sequence	binding signal [E-score]
GATGGTAA	-0.0537
CACAGGTC	-0.0926
CTCAGCAG	-0.0965
GTAGATAA	-0.0196
AGACTGCG	-0.148
AGTCTAAT	-0.151
CAGATCAA	0.0168
AGTCATTA	-0.0506
CGTAGATA	-0.0344
AACTGCGG	-0.182
CGGCGGCA	-0.0558
AAAGTTGA	-0.196
CTCTCCGC	-0.185
ACGATCCG	0.232
GCATCGTA	-0.076
CATCCACC	0.0323
AAACGGCC	-0.159
CGAAAACA	0.186
TCGACACA	0.188
AATTATCA	-0.155
CAATTACG	0.0144
CCATATGA	-0.0788
GCCGCTGA	-0.267
CCTGCAGA	0.106
ATCGTCCC	0.0717

Sequence	binding signal [E-score]
CTGCACAC	0.247
AACCGTAG	-0.335
TCCCCCAA	0.0244
GGACCGTA	-0.159
AGATAGTC	0.118
AGTAGAAT	-0.152
ACCCAATG	0.0984
ACAAAAAT	-0.137
AAGTTTAT	-0.158
AAGACTCG	-0.055
AGGCAGCA	-0.219
ATATGGAT	-0.0172
GCTAAGAA	-0.182
CCGATAAG	-0.12
AACTTTGA	-0.191
CCAGGGAC	-0.107
CTGTGGAA	-0.179
ACTGTAAC	0.0658
AACGGCTG	-0.123
CGACGCCG	0.118
CGAGTATA	-0.178
CATATGGC	-0.129
